{"source": "PubChem BioAssay AID504333", "about": "(National Center for Advancing Translational Sciences (NCATS), 2011)", "note": "The whole screen tested about 360,000 compounds, of which about 16,000 (4.4%) were called active. This list was built around the results that the source calls inconclusive (neither active nor inactive); the mix of calls is not that of the screen. Calls follow the shape of the dose curve; as a rule, active = well fitted inhibition curve with a large enough effect; inconclusive = small, poorly fitted or top-dose-only effect; inactive = no such curve, though single readings can be large or run the other way. A potency beside an inconclusive call is a rough fit, not a confirmed value. % is scaled to controls: 0 for no effect and ±100 for the full control effect; potency is read from the fitted curve at half-maximal effect; tags tell the direction and shape of the fitted curve.", "data": [{"biological_target": "Bromodomain adjacent to zinc finger domain protein 2B (Homo sapiens) (UniProt Q9UIF8)", "sequence (Q9UIF8 whole entry, looked up, the tested form may be a part)": "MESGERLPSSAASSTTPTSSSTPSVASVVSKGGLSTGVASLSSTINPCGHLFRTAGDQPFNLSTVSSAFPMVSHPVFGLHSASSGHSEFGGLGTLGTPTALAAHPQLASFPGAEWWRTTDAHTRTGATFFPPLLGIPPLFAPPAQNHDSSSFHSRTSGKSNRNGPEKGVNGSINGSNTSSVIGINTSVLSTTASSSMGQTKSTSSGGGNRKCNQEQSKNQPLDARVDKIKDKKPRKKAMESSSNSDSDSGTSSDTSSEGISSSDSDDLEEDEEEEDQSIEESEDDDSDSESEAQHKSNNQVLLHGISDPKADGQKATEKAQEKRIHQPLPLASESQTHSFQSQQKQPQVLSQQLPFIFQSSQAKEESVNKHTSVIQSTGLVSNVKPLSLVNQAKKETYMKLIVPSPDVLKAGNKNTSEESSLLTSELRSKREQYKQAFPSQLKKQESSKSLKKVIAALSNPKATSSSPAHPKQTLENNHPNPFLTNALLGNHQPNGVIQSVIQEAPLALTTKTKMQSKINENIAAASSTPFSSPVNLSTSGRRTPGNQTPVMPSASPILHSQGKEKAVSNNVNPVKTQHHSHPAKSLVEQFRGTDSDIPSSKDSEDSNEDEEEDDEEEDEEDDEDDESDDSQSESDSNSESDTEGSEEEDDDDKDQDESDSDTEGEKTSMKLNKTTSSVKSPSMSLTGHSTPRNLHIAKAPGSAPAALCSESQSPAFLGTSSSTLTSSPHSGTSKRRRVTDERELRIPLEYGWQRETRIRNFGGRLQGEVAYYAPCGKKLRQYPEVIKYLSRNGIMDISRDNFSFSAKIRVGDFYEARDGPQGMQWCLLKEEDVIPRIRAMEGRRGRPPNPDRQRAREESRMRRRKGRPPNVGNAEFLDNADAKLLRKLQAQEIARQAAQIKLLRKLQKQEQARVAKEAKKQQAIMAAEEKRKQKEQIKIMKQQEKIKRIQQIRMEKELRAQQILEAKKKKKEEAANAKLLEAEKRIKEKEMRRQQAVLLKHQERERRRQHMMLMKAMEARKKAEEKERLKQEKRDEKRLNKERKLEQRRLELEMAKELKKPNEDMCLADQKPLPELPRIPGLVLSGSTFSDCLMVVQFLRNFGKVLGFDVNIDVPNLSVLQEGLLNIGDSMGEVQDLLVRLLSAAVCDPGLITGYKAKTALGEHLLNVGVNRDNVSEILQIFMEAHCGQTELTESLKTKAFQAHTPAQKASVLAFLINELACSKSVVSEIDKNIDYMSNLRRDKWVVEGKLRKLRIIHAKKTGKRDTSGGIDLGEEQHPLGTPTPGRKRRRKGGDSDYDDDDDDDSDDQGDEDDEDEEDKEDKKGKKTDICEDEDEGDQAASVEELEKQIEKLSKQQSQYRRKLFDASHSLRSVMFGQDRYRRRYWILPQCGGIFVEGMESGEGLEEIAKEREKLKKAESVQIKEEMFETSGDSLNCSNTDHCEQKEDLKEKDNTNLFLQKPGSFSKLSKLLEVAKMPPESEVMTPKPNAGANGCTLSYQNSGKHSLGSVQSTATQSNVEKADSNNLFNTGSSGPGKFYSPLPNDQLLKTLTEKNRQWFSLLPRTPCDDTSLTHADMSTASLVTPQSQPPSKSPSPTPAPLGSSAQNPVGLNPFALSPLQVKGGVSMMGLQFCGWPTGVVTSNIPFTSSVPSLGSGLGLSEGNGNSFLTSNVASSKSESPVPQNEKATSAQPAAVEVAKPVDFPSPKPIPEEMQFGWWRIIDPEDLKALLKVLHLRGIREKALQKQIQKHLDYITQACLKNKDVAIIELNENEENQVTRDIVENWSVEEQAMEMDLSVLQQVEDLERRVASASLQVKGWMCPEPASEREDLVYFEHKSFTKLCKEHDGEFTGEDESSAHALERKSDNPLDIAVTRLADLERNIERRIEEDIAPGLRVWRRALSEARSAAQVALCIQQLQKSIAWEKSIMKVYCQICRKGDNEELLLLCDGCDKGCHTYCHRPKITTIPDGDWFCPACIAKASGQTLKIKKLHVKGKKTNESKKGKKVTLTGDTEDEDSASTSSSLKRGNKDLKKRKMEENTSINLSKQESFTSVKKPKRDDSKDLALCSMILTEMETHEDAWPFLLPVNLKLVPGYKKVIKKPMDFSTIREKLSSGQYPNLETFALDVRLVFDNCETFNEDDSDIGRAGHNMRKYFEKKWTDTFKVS", "assay": "qHTS Assay for Inhibitors of BAZ2B; also: nearly all actives have a fitted effect of over 60% in size", "conditions": "AlphaScreen BAZ2B-H3K14Ac peptide displacement; activity change, negative = inhibition: at 114 µM (top of the series) unless noted", "how_it_was_run": "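Compounds, titrated to a top concentration of 110 uM, were incubated 30 min at room temperature with preformed BAZ2B/acetyl-K14 H3 peptide complex (50 nM each). Proximity signal was measured by AlphaScreen after 20 min with beads.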", "values": [{"smiles": "CC(=O)N(c1nc(/C=C\\C(=O)O)cs1)c1ccccc1F", "Potency": "inconclusive: 79.4 µM [inhibitor, single point]"}, {"smiles": "CN(CCCNC(=O)c1cc2c(Cl)nc3ccccc3c2s1)Cc1ccccc1", "Potency": "inconclusive: 39.8 µM [inhibitor, partial curve]"}, {"smiles": "COc1cc(C)c(CN2CCN(CC(=O)Nc3ccccc3C(=O)NC3CC3)CC2)cc1OC", "activity change, negative = inhibition": "inactive: -4.66%"}, {"smiles": "Cc1cccc(C)c1OCC(=O)Nc1ncn[nH]1", "Potency": "active: 50.1 µM"}, {"smiles": "CCN(CC)CCNC(=O)c1c(C)oc2ncnc(N3CCOCC3)c12", "activity change, negative = inhibition": "inactive: 10.5% [at 57.1 µM]"}, {"smiles": "C=CCN(CC=C)CCOc1cccc2ccccc12", "Potency": "active: 50.1 µM"}, {"smiles": "Cc1ccc(C(=O)Oc2coc(CSc3nnc(NC(=O)c4cccs4)s3)cc2=O)cc1", "activity change, negative = inhibition": "inactive: -37.4%"}, {"smiles": "Cc1nn(-c2ccccc2)c(N2CCCC2)c1/C=N/Nc1ccc(S(N)(=O)=O)cc1[N+](=O)[O-]", "Potency": "active: 10 µM"}, {"smiles": "c1ccc(-c2ccccc2OCCCN2CCOCC2)cc1", "Potency": "active: 17.8 µM"}, {"smiles": "COc1ccc(NC2=Nc3cccc4cccc2c34)cc1OC", "activity change, negative = inhibition": "inactive: -39% [at 57.1 µM]"}, {"smiles": "Cc1cccc(NC(=S)NC(=O)c2ccc(Br)o2)c1", "Potency": "inconclusive: 79.4 µM [inhibitor, single point]"}, {"smiles": "CN(Cc1cccnc1)Cc1cn[nH]c1-c1ccc(-c2ccccc2)cc1", "Potency": "inconclusive: 79.4 µM [inhibitor, partial curve]"}, {"smiles": "O=S(=O)(c1ccc(NC(=S)NCc2ccco2)cc1)N1CCCC1", "Potency": "inconclusive: 89.1 µM [inhibitor, single point]"}, {"smiles": "Cc1ccccc1S(=O)Cc1ccc(C(=O)N2CCN(c3cccc(C)c3C)CC2)o1", "note": "(configuration not stated)", "Potency": "inconclusive: 44.7 µM [inhibitor, partial curve]"}, {"smiles": "CCn1c(=O)c(C(=O)CN(C)CC(=O)Nc2ccccc2Br)c(N)n(Cc2ccccc2)c1=O", "activity change, negative = inhibition": "inactive: 0.618%"}, {"smiles": "Cc1ccc(NCc2ccc(Cl)nc2)c(NCc2ccc(Cl)nc2)c1", "Potency": "active: 35.5 µM"}, {"smiles": "S=C(Nc1ccc(Cl)cc1)c1nc2ccccc2s1", "Potency": "inconclusive: 25.1 µM [inhibitor, full curve, poor fit]"}, {"smiles": "COc1ccc(CCNCc2ccccc2N2CCCC2)cc1", "Potency": "active: 56.2 µM"}, {"smiles": "Cc1ccc(C2CC2C(=O)NN)cc1", "note": "(configuration not stated)", "Potency": "inconclusive: 100 µM [inhibitor, partial curve, poor fit]"}, {"smiles": "COc1ccc2c(Cl)c(C(=O)NCCCn3ccnc3)sc2c1", "Potency": "inconclusive: 79.4 µM [inhibitor, single point]"}, {"smiles": "CC(=O)Nc1ccc(NC(=O)C2CCCN2/C=C/C(=O)C(F)(F)F)cc1", "note": "(configuration not stated)", "Potency": "inconclusive: 89.1 µM [inhibitor, single point]"}, {"smiles": "Cc1ccccc1N/N=C/c1c(C)nc2ccccn12", "Potency": "inconclusive: 50.1 µM [inhibitor, partial curve]"}, {"smiles": "CCOC(=O)CSc1n[nH]c(=S)s1", "Potency": "inconclusive: 89.1 µM [inhibitor, single point]"}, {"smiles": "COc1cccc(Cn2c(CNS(=O)(=O)c3ccc(F)c(Cl)c3)nc3cccnc32)c1", "activity change, negative = inhibition": "inactive: 3.1%"}, {"smiles": "Nc1nc(N2CCN(C/C=C/c3ccccc3)CC2)nc2ccccc12", "activity change, negative = inhibition": "inactive: -36.8%"}, {"smiles": "O=C(Cc1csc(NC(=O)Nc2ccc(Cl)cc2)n1)NCc1cccnc1", "Potency": "inconclusive: 70.8 µM [inhibitor, single point]"}, {"smiles": "Cc1ccc(-c2nc(CS(=O)(=O)CC(=O)N3CCc4ccccc4C3)c(C)o2)cc1", "activity change, negative = inhibition": "inactive: -27.4%"}, {"smiles": "c1cncc(-c2cccnc2)c1", "Potency": "active: 39.8 µM"}, {"smiles": "O=C(Nc1ccccc1Cl)C(Cl)C(=O)c1ccccc1", "note": "(configuration not stated)", "Potency": "inconclusive: 89.1 µM [inhibitor, single point]"}, {"smiles": "CC(C)OCCCN1CC(=O)N2C(c3cccc([N+](=O)[O-])c3)c3[nH]c4ccccc4c3C[C@H]2C1=O", "note": "(some centres not stated)", "activity change, negative = inhibition": "inactive: -25.1%"}, {"smiles": "CN1CCc2c(sc(NC(=O)Cc3ccccc3)c2C#N)C1", "activity change, negative = inhibition": "inactive: -10.2%"}, {"smiles": "COc1ccc(NC(=O)C2=CC(c3ccc(C)cc3)=NS(=O)(=O)N2C)cc1OC", "Potency": "inconclusive: 44.7 µM [inhibitor, partial curve]"}, {"smiles": "C#CCOCCOCCOCCNc1nc(N2CCN(C(=O)[C@H](CCC(=O)O)n3cc(C(N)[C@H](C)CC)nn3)CC2)nc(N2CCN(C(=O)[C@H](Cc3ccc(O)cc3)n3cc(C(N)[C@H](C)CC)nn3)CC2)n1", "note": "(some centres not stated)", "Potency": "active: 50.1 µM"}, {"smiles": "Fc1ccccc1-c1nc(NCc2ccco2)c2ccccc2n1", "Potency": "inconclusive: 79.4 µM [inhibitor, single point]"}, {"smiles": "Cc1ccccc1NC1=C(Cl)C(=O)N(C2CCCCC2)C1=O", "activity change, negative = inhibition": "inactive: -2.44%"}, {"smiles": "Cc1onc(-c2ccccc2)c1C(=O)NCCN1CCOCC1", "Potency": "inconclusive: 100 µM [inhibitor, single point]"}, {"smiles": "O=C(NCCCN1CCOCC1)c1ccc2c(c1)N(Cc1ccc(F)cc1)CCS2", "Potency": "inconclusive: 44.7 µM [inhibitor, partial curve]"}, {"smiles": "CCOC(=O)c1[nH]c2ccc(Br)cc2c1NC(=O)CCN1CCC(C(=O)OCC)CC1", "activity change, negative = inhibition": "inactive: 4.98%"}, {"smiles": "Cc1ccc(NC2=CC(c3ccccc3F)N(c3ccc(C)cc3)C2=O)cc1", "note": "(configuration not stated)", "Potency": "inconclusive: 35.5 µM [inhibitor, partial curve]"}, {"smiles": "S=c1[nH]nc(Nc2ccc(Cl)cc2)s1", "Potency": "inconclusive: 79.4 µM [inhibitor, single point]"}, {"smiles": "CCOC(=O)c1[nH]c(C)c(CCC(=O)OC)c1C", "Potency": "inconclusive: 89.1 µM [inhibitor, single point]"}, {"smiles": "O=C(O)c1nc(-c2ccccc2)n(-c2ccc(Cl)cc2)n1", "Potency": "inconclusive: 10 µM [inhibitor, partial curve, poor fit]"}, {"smiles": "CCCCc1nnc(NC(=O)c2ccc3[nH]c(=O)c(=O)[nH]c3c2)s1", "activity change, negative = inhibition": "inactive: -25.2%"}, {"smiles": "COc1ccc(CC(=O)c2c(O)cc(O)cc2O)cc1OC", "Potency": "inconclusive: 10 µM [inhibitor, partial curve, poor fit]"}, {"smiles": "O=C(NC(=S)Nc1ccc(CN2CCOCC2)cc1)c1ccc([N+](=O)[O-])cc1Cl", "Potency": "inconclusive: 50.1 µM [inhibitor, partial curve]"}, {"smiles": "CCOc1ccc(NC(=O)c2cn(-c3ccc(OCC)cc3)c(=O)c3cc(OC)c(OC)cc23)cc1", "activity change, negative = inhibition": "inactive: -31.4%"}, {"smiles": "COc1ccc(C(=O)N2CCCC(Nc3ccc(C(C)C)cc3)C2)c(OC)n1", "note": "(configuration not stated)", "Potency": "inconclusive: 50.1 µM [inhibitor, partial curve, poor fit]"}, {"smiles": "COc1cccc2cc(C(C)N(CCCN3CCOCC3)C(=S)Nc3ccccc3C)oc12", "note": "(configuration not stated)", "Potency": "inconclusive: 79.4 µM [inhibitor, partial curve]"}, {"smiles": "O=C(CN1CCCC1)Nc1ccc(Br)cc1[N+](=O)[O-]", "Potency": "inconclusive: 70.8 µM [inhibitor, partial curve]"}, {"smiles": "COc1ccc(C2/C(=C(\\O)c3ccc4c(c3)OCCO4)C(=O)C(=O)N2CCCn2ccnc2)cc1", "note": "(configuration not stated)", "Potency": "inconclusive: 63.1 µM [inhibitor, partial curve]"}, {"smiles": "O=[N+]([O-])c1ccc(N2CCN(Cc3ccncc3)CC2)cc1", "Potency": "active: 50.1 µM"}, {"smiles": "S=C(Nc1ccc(Oc2ccccc2)cc1)N(CCCN1CCOCC1)Cc1ccccn1", "Potency": "inconclusive: 70.8 µM [inhibitor, partial curve]"}, {"smiles": "COCCn1c(C)cc(/C=C2/SC(=O)N(C(C)C(=O)OC)C2=O)c1C", "note": "(configuration not stated)", "Potency": "inconclusive: 50.1 µM [inhibitor, partial curve]"}, {"smiles": "CC(C)CC1Nc2ncnc(N3CCCCC3)c2N(Cc2ccc(Br)cc2)C1=O", "note": "(configuration not stated)", "Potency": "inconclusive: 79.4 µM [inhibitor, partial curve]"}, {"smiles": "Cc1cccn2c(=O)c(/C=C(\\C#N)C(N)=O)c(Oc3ccccc3)nc12", "Potency": "inconclusive: 79.4 µM [inhibitor, single point]"}, {"smiles": "CC1CC(C)(C)CC2(C1)NC(=O)N(CC(=O)Nc1ccc(N3CCCCC3)cc1)C2=O", "note": "(configuration not stated)", "Potency": "inconclusive: 35.5 µM [inhibitor, partial curve]"}, {"smiles": "Cc1ccc(S(=O)(=O)N(C)C)cc1NC(=O)c1cc(=O)c2ccccc2o1", "activity change, negative = inhibition": "inactive: -27.2%"}, {"smiles": "O=C(NCc1cc([N+](=O)[O-])ccc1O)c1cccnc1Sc1ccccc1Cl", "Potency": "inconclusive: 39.8 µM [inhibitor, partial curve]"}, {"smiles": "CC(=O)NCc1ccc(S(=O)(=O)N/N=C/c2ccccc2)cc1", "activity change, negative = inhibition": "inactive: -18.9%"}, {"smiles": "CC(=O)Nc1ccc(/C(C)=N\\NC(=O)c2ccc(-c3ccccc3)cc2)cc1", "activity change, negative = inhibition": "inactive: -14.8%"}, {"smiles": "CC(C)(C)C(=O)Nc1ccnn1C1CCN(C(=O)c2ccc(Cl)cc2F)CC1", "activity change, negative = inhibition": "inactive: -28.2%"}, {"smiles": "CN(C(=O)/C=C/c1ccco1)c1ccccc1C(=O)O", "Potency": "inconclusive: 79.4 µM [inhibitor, partial curve]"}, {"smiles": "CC1CCN(c2ccc(/C=N/n3nnnc3N)cc2[N+](=O)[O-])CC1", "Potency": "inconclusive: 17.8 µM [inhibitor, single point]"}, {"smiles": "Cc1cccc(C(=O)Nc2ccc(-c3nc4ccccc4s3)cc2Cl)c1", "activity change, negative = inhibition": "inactive: 0.476%"}, {"smiles": "C=CCOc1c(Cl)cc(CNc2nccs2)cc1OC", "Potency": "inconclusive: 44.7 µM [inhibitor, partial curve]"}, {"smiles": "CCOC(=O)N1CCN(S(=O)(=O)c2ccc3[nH]cc(C(=O)O)c(=O)c3c2)CC1", "Potency": "inconclusive: 79.4 µM [inhibitor, single point]"}, {"smiles": "COc1cccc(NC(=O)C2CCN(S(=O)(=O)c3ccc4c(c3)NC(=O)C(C)S4)CC2)c1", "note": "(configuration not stated)", "activity change, negative = inhibition": "inactive: -16.8%"}, {"smiles": "Cc1onc(-c2ccccc2)c1C(=O)NCc1ccc2c(c1)OCO2", "Potency": "inconclusive: 100 µM [inhibitor, single point]"}, {"smiles": "Cc1ccc(C)c(OCCCCCn2ccnc2)c1", "Potency": "inconclusive: 70.8 µM [inhibitor, single point]"}, {"smiles": "O=C(NCc1ccccc1Br)c1ccc2nc(N3CCCCC3)sc2c1", "activity change, negative = inhibition": "inactive: 3.58%"}, {"smiles": "Nc1nc(-c2ccc3c(c2)CCC(=O)N3)cs1", "activity change, negative = inhibition": "inactive: -18.3%"}, {"smiles": "O=C(Nc1ccccc1)Nc1ncc([N+](=O)[O-])s1", "Potency": "inconclusive: 44.7 µM [inhibitor, partial curve]"}]}]}
